According to the supplement of paper PMC8728848:
Some of the results follow.

Experiments:
Assay in all cases: glycan array binding signal (z-score within array); higher = stronger binding
Conditions in all cases: glycan notation: IUPAC condensed, linker removed
[1] = target: Neu5Ac(a2-3)Gal(b1-3)[Neu5Ac(a2-6)]GlcNAc(b1-3)[Fuc(a1-3)[Gal(b1-4)]GlcNAc(b1-6)]Gal(b1-4)Glc
Outline: (§1)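 Glycan array data were curated from 3228 arrays in the Consortium for Functional Glycomics database and kept only where the protein sequence was available. Glycan names were converted to IUPAC-condensed notation, and columns mapping to the same glycan were averaged. The binding signal is a within-array Z-score, averaged across arrays of the same protein sequence at different concentrations or buffers and across linkers. Negative Z-scores can be read as non-binding.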

[2] = target: Neu5Ac(a2-3)Gal(b1-3)]Neu5Ac(a2-3)Gal(b1-4)]GlcNAc
Outline: as §1

Neu5Ac(a2-3)Gal(b1-4)Glc = target: Neu5Ac(a2-3)Gal(b1-4)Glc
Outline: as §1

[3] = target: Neu5Ac(a2-3)Gal(b1-4)GlcNAc
Outline: as §1

[4] = target: Neu5Ac(a2-3)Gal(b1-4)GlcNAc(b1-2)Man
Outline: as §1

[5] = target: Neu5Ac(a2-3)Gal(b1-4)GlcNAc(b1-2)Man(a1-3)[GlcNAc(b1-4)][Neu5Ac(a2-3)Gal(b1-4)GlcNAc(b1-2)Man(a1-6)]Man(b1-4)GlcNAc(b1-4)GlcNAc
Outline: as §1

[6] = target: Neu5Ac(a2-3)Gal(b1-4)GlcNAc(b1-2)Man(a1-3)[Neu5Ac(a2-3)Gal(b1-4)GlcNAc(b1-2)Man(a1-6)]Man(b1-4)GlcNAc(b1-4)GlcNAc
Outline: as §1

[7] = target: Neu5Ac(a2-3)Gal(b1-4)GlcNAc(b1-2)Man(a1-3)[Neu5Ac(a2-3)Gal(b1-4)GlcNAc(b1-2)Man(a1-6)]Man(b1-4)GlcNAc(b1-4)[Fuc(a1-6)]GlcNAc
Outline: as §1

[8] = target: Neu5Ac(a2-3)Gal(b1-4)GlcNAc(b1-2)Man(a1-3)[Neu5Ac(a2-6)Gal(b1-4)GlcNAc(b1-2)Man(a1-6)]Man(b1-4)GlcNAc(b1-4)GlcNAc
Outline: as §1

[9] = target: Neu5Ac(a2-3)Gal(b1-4)GlcNAc(b1-2)[Neu5Ac(a2-3)Gal(b1-4)GlcNAc(b1-4)]Man(a1-3)[GlcNAc(b1-4)][Neu5Ac(a2-3)Gal(b1-4)GlcNAc(b1-2)[Neu5Ac(a2-3)Gal(b1-4)GlcNAc(b1-6)]Man(a1-6)]Man(b1-4)GlcNAc(b1-4)GlcNAc
Outline: as §1

[10] = target: Neu5Ac(a2-3)Gal(b1-4)GlcNAc(b1-2)[Neu5Ac(a2-3)Gal(b1-4)GlcNAc(b1-4)]Man(a1-3)[GlcNAc(b1-4)][Neu5Ac(a2-3)Gal(b1-4)GlcNAc(b1-4)Man(a1-6)]Man(b1-4)GlcNAc(b1-4)GlcNAc
Outline: as §1

[11] = target: Neu5Ac(a2-3)Gal(b1-4)GlcNAc(b1-2)[Neu5Ac(a2-3)Gal(b1-4)GlcNAc(b1-6)]Man(a1-6)[Neu5Ac(a2-3)Gal(b1-4)GlcNAc(b1-2)Man(a1-3)]Man(b1-4)GlcNAc(b1-4)GlcNAc
Outline: as §1

[12] = target: Neu5Ac(a2-3)Gal(b1-4)GlcNAc(b1-2)[Neu5Ac(a2-3)Gal(b1-4)GlcNAc(b1-6)]Man(a1-6)[Neu5Ac(a2-3)Gal(b1-4)GlcNAc(b1-2)Man(a1-3)][GlcNAc(b1-4)]Man(b1-4)GlcNAc(b1-4)GlcNAc
Outline: as §1

[13] = target: Neu5Ac(a2-3)Gal(b1-4)GlcNAc(b1-3)Gal
Outline: as §1

[14] = target: Neu5Ac(a2-3)Gal(b1-4)GlcNAc(b1-3)Gal(b1-3)GlcNAc
Outline: as §1

[15] = target: Neu5Ac(a2-3)Gal(b1-4)GlcNAc(b1-3)Gal(b1-4)GlcNAc
Outline: as §1

[16] = target: Neu5Ac(a2-3)Gal(b1-4)GlcNAc(b1-3)Gal(b1-4)GlcNAc(b1-2)Man(a1-3)[Neu5Ac(a2-3)Gal(b1-4)GlcNAc(b1-3)Gal(b1-4)GlcNAc(b1-2)Man(a1-6)]Man(b1-4)GlcNAc(b1-4)GlcNAc
Outline: as §1

[17] = target: Neu5Ac(a2-3)Gal(b1-4)GlcNAc(b1-3)Gal(b1-4)GlcNAc(b1-3)Gal(b1-4)GlcNAc
Outline: as §1

[18] = target: Neu5Ac(a2-3)Gal(b1-4)GlcNAc(b1-3)Gal(b1-4)GlcNAc(b1-3)Gal(b1-4)GlcNAc(b1-2)Man(a1-3)[Neu5Ac(a2-3)Gal(b1-4)GlcNAc(b1-3)Gal(b1-4)GlcNAc(b1-3)Gal(b1-4)GlcNAc(b1-2)Man(a1-6)]GalNAc
Outline: as §1

[19] = target: Neu5Ac(a2-3)Gal(b1-4)GlcNAc(b1-3)Gal(b1-4)GlcNAc(b1-3)GalNAc
Outline: as §1

[20] = target: Neu5Ac(a2-3)Gal(b1-4)GlcNAc(b1-3)Gal(b1-4)GlcNAc(b1-3)[Neu5Ac(a2-3)Gal(b1-4)GlcNAc(b1-3)Gal(b1-4)GlcNAc(b1-6)]GalNAc
Outline: as §1

[21] = target: Neu5Ac(a2-3)Gal(b1-4)GlcNAc(b1-3)Gal(b1-4)GlcNAc(b1-6)[Gal(b1-3)]GalNAc
Outline: as §1

[22] = target: Neu5Ac(a2-3)Gal(b1-4)GlcNAc(b1-3)Gal(b1-4)[Fuc(a1-3)]GlcNAc
Outline: as §1

[23] = target: Neu5Ac(a2-3)Gal(b1-4)GlcNAc(b1-3)GalNAc
Outline: as §1

[24] = target: Neu5Ac(a2-3)Gal(b1-4)GlcNAc(b1-3)[Neu5Ac(a2-3)Gal(b1-4)GlcNAc(b1-6)]GalNAc
Outline: as §1

[25] = target: Neu5Ac(a2-3)Gal(b1-4)GlcNAc(b1-6)GalNAc
Outline: as §1

[26] = target: Neu5Ac(a2-3)Gal(b1-4)GlcNAc(b1-6)[Gal(b1-3)]GalNAc
Outline: as §1

[27] = target: Neu5Ac(a2-3)Gal(b1-4)GlcNAc(b1-6)[Neu5Ac(a2-3)Gal(b1-3)]GalNAc
Outline: as §1

[28] = target: Neu5Ac(a2-3)Gal(b1-4)GlcNAc6S
Outline: as §1

[29] = target: Neu5Ac(a2-3)Gal(b1-4)[Fuc(a1-3)]GlcNAc
Outline: as §1

[30] = target: Neu5Ac(a2-3)Gal(b1-4)[Fuc(a1-3)]GlcNAc(b1-2)Man
Outline: as §1

[31] = target: Neu5Ac(a2-3)Gal(b1-4)[Fuc(a1-3)]GlcNAc(b1-3)Gal
Outline: as §1

[32] = target: Neu5Ac(a2-3)Gal(b1-4)[Fuc(a1-3)]GlcNAc(b1-3)Gal(b1-4)GlcNAc
Outline: as §1

[33] = target: Neu5Ac(a2-3)Gal(b1-4)[Fuc(a1-3)]GlcNAc(b1-3)Gal(b1-4)[Fuc(a1-3)]GlcNAc(b1-3)Gal(b1-4)[Fuc(a1-3)]GlcNAc
Outline: as §1

[34] = target: Neu5Ac(a2-3)Gal(b1-4)[Fuc(a1-3)]GlcNAc(b1-3)GalNAc
Outline: as §1

[35] = target: Neu5Ac(a2-3)Gal(b1-4)[Fuc(a1-3)]GlcNAc(b1-6)[Gal(b1-3)]GalNAc
Outline: as §1

[36] = target: Neu5Ac(a2-3)Gal(b1-4)[Fuc(a1-3)]GlcNAc(b1-6)[Neu5Ac(a2-3)Gal(b1-3)]GalNAc
Outline: as §1

[37] = target: Neu5Ac(a2-3)Gal(b1-4)[Fuc(a1-3)]GlcNAc6S
Outline: as §1

[38] = target: Neu5Ac(a2-3)Gal6S(b1-4)GlcNAc
Outline: as §1

B1: SSR2 (Sclerotium rolfsii) (protein)
chain: MVYKITVRVYQTNPDAFFHPVEKTVWKYANGGTWSITDDQHVLTMGGSGTSGTLRFHADNGESFTATFGVHNYKRWCDIVTNLAADETGMVINQQYYSQKNREEARERQLSNYQVKNAKGRNFQIVYTEAEGNDLHANLIIG
B1 was tested, and the “glycan array binding signal (z-score)” value [1] was -0.288, the “glycan array binding signal (z-score)” value [2] was -0.219 and the “glycan array binding signal (z-score)” value (Neu5Ac(a2-3)Gal(b1-4)Glc) was -0.264. The “glycan array binding signal (z-score)” value [3] was -0.29, the “glycan array binding signal (z-score)” value [4] was -0.265 and the “glycan array binding signal (z-score)” value [5] was -0.284. The “glycan array binding signal (z-score)” value [6] was -0.284, the “glycan array binding signal (z-score)” value [7] was -0.257 and the “glycan array binding signal (z-score)” value [8] was -0.298. For the same binder, the “glycan array binding signal (z-score)” value [9] was -0.282, the “glycan array binding signal (z-score)” value [10] was -0.284 and the “glycan array binding signal (z-score)” value [11] was -0.363. The “glycan array binding signal (z-score)” value [12] was -0.29, the “glycan array binding signal (z-score)” value [13] was -0.288 and the “glycan array binding signal (z-score)” value [14] was -0.291. The “glycan array binding signal (z-score)” value [15] was -0.288, the “glycan array binding signal (z-score)” value [16] was -0.224 and the “glycan array binding signal (z-score)” value [17] was -0.287. For the same binder, the “glycan array binding signal (z-score)” value [18] was -0.191, the “glycan array binding signal (z-score)” value [19] was -0.287 and the “glycan array binding signal (z-score)” value [20] was -0.267. For the same binder, the “glycan array binding signal (z-score)” value [21] was 0.625, the “glycan array binding signal (z-score)” value [22] was -0.291 and the “glycan array binding signal (z-score)” value [23] was -0.27. For the same binder, the “glycan array binding signal (z-score)” value [24] was -0.275, the “glycan array binding signal (z-score)” value [25] was -0.275 and the “glycan array binding signal (z-score)” value [26] was 1.02. For the same binder, the “glycan array binding signal (z-score)” value [27] was 0.099, the “glycan array binding signal (z-score)” value [28] was -0.293 and the “glycan array binding signal (z-score)” value [29] was -0.293. The “glycan array binding signal (z-score)” value [30] was -0.284, the “glycan array binding signal (z-score)” value [31] was -0.284 and the “glycan array binding signal (z-score)” value [32] was -0.247. For the same binder, the “glycan array binding signal (z-score)” value [33] was -0.279, the “glycan array binding signal (z-score)” value [34] was -0.25 and the “glycan array binding signal (z-score)” value [35] was -0.253. For the same binder, the “glycan array binding signal (z-score)” value [36] was -0.255, the “glycan array binding signal (z-score)” value [37] was -0.293 and the “glycan array binding signal (z-score)” value [38] was -0.285.
